This is one part of the list. Values come from read counts of a selection and are noisy. Scores sum up all selected molecules that hold the word; the word was not tested alone.
How the values were obtained:
Test in all cases: 6-mer SELEX enrichment z-score vs GST control; IMP3 is the RNA-binding protein IGF2BP3; higher = more enriched by binding
[1] = system: IMP3 KH1-4; conditions: construct: KH1-4 (164-579); SELEX round: R4
Description: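 SELEX-seq with GST-tagged IMP3 KH1-4 (Pro164-Lys579) and an N40 RNA pool, round 4. 6-mer z-score of sequence-tag enrichment normalised to the corresponding GST SELEX round; RNA k-mers written as DNA (T for U).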

[2] = system: IMP3 RRM1-2; conditions: construct: RRM1-2 (1-163); SELEX round: R2
Description: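 SELEX-seq with GST-tagged IMP3 RRM1-2 (Met1-Asn163) and an N40 RNA pool, round 2. 6-mer enrichment z-score normalised to GST SELEX. RNA written as DNA (T = U).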

[3] = system: IMP3 KH1-2; conditions: construct: KH1-2 (164-376); SELEX round: R4
Description: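 SELEX-seq with GST-tagged IMP3 KH1-2 (Pro164-Phe376) and an N40 RNA pool, round 4 (stringent 300/600 mM KCl washes). 6-mer z-score of sequence-tag enrichment normalised to the corresponding GST SELEX round; RNA k-mers written as DNA (T for U).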

[4] = system: IMP3 KH3-4; conditions: construct: KH3-4 (377-579); SELEX round: R4
Description: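 SELEX-seq with GST-tagged IMP3 KH3-4 (Pro377-Lys579) and an N40 RNA pool, round 4. 6-mer z-score of sequence-tag enrichment normalised to the corresponding GST SELEX round; RNA k-mers written as DNA (T for U).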

[5] = target: IMP3 full-length (UniProt O00425); conditions: construct: FL IMP3 (1-579); SELEX round: R4
Description: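 SELEX-seq with GST-tagged full-length IMP3 and an N40 RNA pool, round 4. Each 6-mer is scored as an enrichment z-score of sequence tags containing it, normalised to the matching GST SELEX round. RNA written as DNA (T = U).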

IMP3 KH1-4, sequence (chain, as listed by the source): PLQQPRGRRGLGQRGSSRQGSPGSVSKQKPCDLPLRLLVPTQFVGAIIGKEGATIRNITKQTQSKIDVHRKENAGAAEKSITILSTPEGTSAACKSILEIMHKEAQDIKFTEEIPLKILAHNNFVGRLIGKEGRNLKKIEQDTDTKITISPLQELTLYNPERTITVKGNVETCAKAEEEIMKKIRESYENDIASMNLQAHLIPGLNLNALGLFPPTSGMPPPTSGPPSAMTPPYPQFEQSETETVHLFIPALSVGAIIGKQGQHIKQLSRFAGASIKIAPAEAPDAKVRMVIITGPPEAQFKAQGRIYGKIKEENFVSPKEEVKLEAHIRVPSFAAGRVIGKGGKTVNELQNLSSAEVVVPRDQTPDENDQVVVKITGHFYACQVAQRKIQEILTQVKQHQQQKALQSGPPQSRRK
IMP3 KH3-4, sequence (chain, as listed by the source): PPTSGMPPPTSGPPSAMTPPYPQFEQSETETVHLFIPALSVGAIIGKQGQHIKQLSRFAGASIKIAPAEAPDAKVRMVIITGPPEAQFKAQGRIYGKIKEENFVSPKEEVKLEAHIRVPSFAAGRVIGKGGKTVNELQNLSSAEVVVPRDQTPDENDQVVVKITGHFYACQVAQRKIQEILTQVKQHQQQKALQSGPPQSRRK
UniProt O00425, sequence (O00425 whole entry): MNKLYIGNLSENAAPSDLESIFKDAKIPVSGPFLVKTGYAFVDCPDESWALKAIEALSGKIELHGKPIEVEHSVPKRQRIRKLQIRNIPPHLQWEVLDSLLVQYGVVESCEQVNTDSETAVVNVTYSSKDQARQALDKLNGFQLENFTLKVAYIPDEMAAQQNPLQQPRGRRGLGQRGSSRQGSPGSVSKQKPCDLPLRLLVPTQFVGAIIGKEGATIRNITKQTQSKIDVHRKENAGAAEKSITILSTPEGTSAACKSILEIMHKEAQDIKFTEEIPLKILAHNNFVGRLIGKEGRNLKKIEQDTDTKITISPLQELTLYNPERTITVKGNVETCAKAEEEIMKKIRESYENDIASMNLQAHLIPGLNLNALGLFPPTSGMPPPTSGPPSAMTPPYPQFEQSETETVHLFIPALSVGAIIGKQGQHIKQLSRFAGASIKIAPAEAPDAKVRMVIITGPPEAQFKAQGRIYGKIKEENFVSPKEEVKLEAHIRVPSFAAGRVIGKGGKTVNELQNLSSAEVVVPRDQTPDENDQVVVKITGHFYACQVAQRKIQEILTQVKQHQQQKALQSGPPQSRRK
IMP3 RRM1-2, sequence (chain, as listed by the source): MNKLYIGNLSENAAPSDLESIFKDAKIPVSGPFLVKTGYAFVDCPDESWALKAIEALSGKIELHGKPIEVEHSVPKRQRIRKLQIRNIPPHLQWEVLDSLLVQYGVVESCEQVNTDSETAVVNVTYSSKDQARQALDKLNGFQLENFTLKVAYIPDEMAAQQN
IMP3 KH1-2, sequence (chain, as listed by the source): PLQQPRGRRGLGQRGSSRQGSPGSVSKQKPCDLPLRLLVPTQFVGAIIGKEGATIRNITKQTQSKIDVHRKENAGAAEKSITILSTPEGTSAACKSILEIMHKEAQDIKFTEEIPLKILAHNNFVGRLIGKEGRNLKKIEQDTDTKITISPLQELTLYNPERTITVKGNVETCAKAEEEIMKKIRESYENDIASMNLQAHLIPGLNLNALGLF

| Sequence | 6-mer SELEX enrichment z-score [1] | 6-mer SELEX enrichment z-score [2] | 6-mer SELEX enrichment z-score [3] | 6-mer SELEX enrichment z-score [4] | 6-mer SELEX enrichment z-score [5] |
| --- | --- | --- | --- | --- | --- |
| CAGTTG | 0.051 | 0.324 | -0.05 |  |  |
| TAGAGC | -2.09 | -0.052 | -1.91 | -1.71 |  |
| GCTCCT | 0.143 | 0.073 |  | 0.003 | 0.105 |
| CGTCAC | -0.618 | 0.348 | -0.65 |  |  |
| TATCGA | -0.838 | -0.124 | -0.849 |  |  |
| TCTCGC | -0.561 | 0.474 | -0.387 |  |  |
| GCCTAA | -0.927 | -0.806 | -0.801 |  |  |
| TATATC | 1.1 | 0.305 |  | 1.25 | 0.401 |
| CACCGT | -0.201 | -0.03 | -0.24 |  |  |
| CGTTGC | -0.715 | 0.103 | -0.634 |  |  |
| ACCATT | 1.07 | 1.11 | 0.947 |  |  |
| CGATAT | 0.57 | -0.306 | 0.363 |  |  |
| TGGGTC | 0.004 | 0.443 | 0.173 | 0.236 |  |
| AGGCGA | -0.063 | -0.129 |  | 0.23 | 0.568 |
| TACACG | 0.565 | 0.178 | 0.472 |  |  |
| ACCGTT | -0.196 | -0.327 | -0.102 |  |  |
| TTGCGC | -0.441 | 0.105 | -0.417 |  |  |
| AATGCT | 0.292 | -0.397 | 0.223 |  |  |
| CGTCTA | -0.586 | 0.179 | -0.428 |  |  |
| GAGGTT | 0.103 | 0.255 | 0.128 |  |  |
| GCCGAG | -1.47 | -0.625 | -1.24 |  |  |
| TGTGAT | 0.832 | -0.079 | 0.471 |  |  |
| CTACTC | -0.636 | 0.074 | -0.534 |  |  |
| CTGTTT | 0.226 | 0.292 |  | 0.242 | -0.048 |
| CCAGGA | -0.228 | -0.491 |  | -0.442 | -0.471 |
| GTAGAT | -0.321 | -0.12 |  | -0.137 | -0.363 |
| TGCGTA | -2.38 | 0.035 | -2.19 |  |  |
| CGGCTG | 0.486 | 0.235 | 0.35 |  |  |
